# Experimental data from the supplement of paper PMC12217912.
# The other results are listed elsewhere or left out. Sequences were assembled here from the parent chain. Values near 0.05 are background.
# B1: TEV protease; numbered along this chain (parent)
# chain: MGESLFKGPRDYNPISSSICHLTNESDGHTTSLYGIGFGPFIITNKHLFRRNNGTLVVQSLHGVFKVKDTTTLQQHLVDGRDMIIIRMPKDFPPFPQKLKFREPQREERICLVTTNFQTKSMSSMVSDTSCTFPSGDGIFWKHWIQTKDGQCGSPLVSTRDGFIVGIHSASNFTNTNNYFTSVPKNFMELLTNQEAQQWVSGWRLNADSVLWGGHKVFMVKPEEPFQPVKEATQL
# Variants of: B1
# Assay: raw area under fraction-flipped curve 0-4 h after induction (AUC4h, not background-subtracted), DNA-recorder readout of cleavage of the substrate (dimensionless); higher = more cleavage of the substrate by the protease variant
# Conditions: temperature: 34 °C; time window: 0-4 h after rhamnose induction
# 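Further: Bxb1 expression induced with 0.2% (w/v) L-rhamnose at OD600 near 0.5, cultures sampled hourly, flipped fraction per protease–substrate barcode pair counted by paired-end Illumina sequencing.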
Variant,area with substrate ENAYFQS,area with substrate ENCYFQS,area with substrate ENDYFQS,area with substrate ENEYFQS,area with substrate ENHYFQS,area with substrate ENIYFQS,area with substrate ENNYFQS,area with substrate ENPYFQS,area with substrate ENQYFQS,area with substrate ENRYFQS,area with substrate ENSYFQS,area with substrate ENTYFQS,area with substrate ENWYFQS,area with substrate ENYYFQS,area with substrate ENGYFQS,area with substrate ENKYFQS,area with substrate ENMYFQS,area with substrate ENVYFQS,area with substrate ENFYFQS
MGESLFKGPRDYNPISSSICHLTNESDGHTTSLYGIGFGPFIITNKHLFRRNNGTLVVQSLHGVFKVKDTTTLQQHLVDGRDMIIIRMPKDFPPFPQKLKFREPQREERICLVTTNFQTKSMSSMVSDTSCTFPSGDGIFWKHWIQTKDGQCGSPLVSTRDGFIVGIHRASNFTNTNNYFTSVPKNFMELLTNQEAQQWVSGWRLNADSVLWGGHKVFMVKPEEPFQPVKEATQL [S169R],0.0599,0.057,0.0634,0.0664,0.0687,0.065,0.0677,0.0588,0.0536,0.0527,0.0584,0.0609,0.063,0.0625,,,,,
MGESLFKGPRDYNPISSSICHLTNESDGHTTSLYGIGFGPFIITNKHLFRRNNGTLVVQSLHGVFKVKDTTTLQQHLVDGRDMIIIRMPKDFPPFPQKLKFREPQREERICLVTTNFQTKSMSSMVSDTSCTFPSGDGIFWKHWIQTKDGQCGSPLVSTRDGFIVGIHSASNFTDTNNYFTSVPKNFMELLTNQEAQQWVSGWRLNADSVLWGGHKVFMVKPEEPFQPVKEATQL [N175D],0.0641,0.0635,0.0618,0.0665,0.051,0.0549,0.0519,,0.0585,,0.0462,0.0631,,0.0554,0.0628,0.0745,0.0748,0.0688,
MGESLFKGPRDYNPISSSICHLTNESDGHTTSLYGIGFGPFIITNKHLFRRNNGTLVVQSLHGVFKVKDTTTLQQHLVDGRDMIIIRMPKDFPPFPQKLKFREPQREERICLVTTNFQTKSMSSMVSDTSCTFPSGDGIFWKHWIQTKDGQCGSPLVSTRDGFIVGIHSASNFTMTNNYFTSVPKNFMELLTNQEAQQWVSGWRLNADSVLWGGHKVFMVKPEEPFQPVKEATQL [N175M],0.0614,0.0642,0.0429,0.0593,0.061,0.0829,,0.05,0.0544,0.0747,0.0667,0.0686,0.0067,0.0796,0.0432,,,,0.0518
MGESLFKGPRDYNPISSSICHLTNESDGHTTSLYGIGFGPFIITNKHLFRRNNGTLVVQSLHGVFKVKDTTTLQQHLVDGRDMIIIRMPKDFPPFPQKLKFREPQREERICLVTTNFQTKSMSSMVSDTSCTFPSGDGIFWKHWIQTKDGQCGSPLVSTRDGFIVGIHSASNFTPTNNYFTSVPKNFMELLTNQEAQQWVSGWRLNADSVLWGGHKVFMVKPEEPFQPVKEATQL [N175P],0.0546,,0.0532,,,,0.0568,,0.0728,0.0551,0.066,0.0641,0.0515,,,,,0.0668,
MGESLFKGPRDYNPISSSICHLTNESDGHTTSLYGIGFGPFIITNKHLFRRNNGTLVVQSLHGVFKVKDTTTLQQHLVDGRDMIIIRMPKDFPPFPQKLKFREPQREERICLVTTNFQTKSMSSMVSDTSCTFPSGDGIFWKHWIQTKDGQCGSPLVSTRDGFIVGIHSASNFTTTNNYFTSVPKNFMELLTNQEAQQWVSGWRLNADSVLWGGHKVFMVKPEEPFQPVKEATQL [N175T],0.0719,,0.089,,,0.0654,0.0641,0.0656,0.0629,,,0.0616,,0.0585,0.0529,0.0654,0.0705,,
MGESLFKGPRDYNPISSSICHLTNESDGHTTSLYGIGFGPFIITNKHLFRRNNGTLVVQSLHGVFKVKDTTTLQQHLVDGRDMIIIRMPKDFPPFPQKLKFREPQREERICLVTTNFQTKSMSSMVSDTSCTFPSGDGIFWKHWIQTKDGQCGSPLVSTRDGFIVGIHSASNFTYTNNYFTSVPKNFMELLTNQEAQQWVSGWRLNADSVLWGGHKVFMVKPEEPFQPVKEATQL [N175Y],0.0514,0.0583,,0.048,0.058,,0.0601,,0.0583,0.0719,0.0615,0.0587,,,0.0647,,,0.052,
MGESLFKGPRDYNPISSSICHLTNESDGHTTSLYGIGFGPFIITNKHLFRRNNGTLVVQSLHGVFKVKDTTTLQQHLVDGRDMIIIRMPKDFPPFPQKLKFREPQREERICLVTTNFQTKSMSSMVSDTSCTFPSGDGIFWKHWIQTKDGQCGSPLVSTRDGFIVGIHSASNFTNWNNYFTSVPKNFMELLTNQEAQQWVSGWRLNADSVLWGGHKVFMVKPEEPFQPVKEATQL [T176W],0.0605,,0.0313,,0.0673,0.0603,0.0766,0.0318,0.0689,0.0263,0.0541,0.0599,,,,,,,
MGESLFKGPRDYNPISSSICHLTNESDGHTTSLYGIGFGPFIITNKHLFRRNNGTLVVQSLHGVFKVKDTTTLQQHLVDGRDMIIIRMPKDFPPFPQKLKFREPQREERICLVTTNFQTKSMSSMVSDTSCTFPSGDGIFWKHWIQTKDGQCGSPLVSTRDGFIVGIHSASNFTNTNNQFTSVPKNFMELLTNQEAQQWVSGWRLNADSVLWGGHKVFMVKPEEPFQPVKEATQL [Y179Q],0.0535,0.059,0.0676,,0.0811,0.0434,0.0612,,0.0615,0.0547,0.0696,0.0615,,0.0413,0.0706,0.0671,0.062,0.0499,0.0499
MGESLFKGPRDYNPISSSICHLTNESDGHTTSLYGIGFGPFIITNKHLFRRNNGTLVVQSLHGVFKVKDTTTLQQHLVDGRDMIIIRMPKDFPPFPQKLKFREPQREERICLVTTNFQTKSMSSMVSDTSCTFPSGDGIFWKHWIQTKDGQCGSPLVSTRDGFIVGIHSASNFTNTNNTFTSVPKNFMELLTNQEAQQWVSGWRLNADSVLWGGHKVFMVKPEEPFQPVKEATQL [Y179T],0.057,0.0733,0.054,0.0676,0.0692,,0.0647,0.0668,0.0649,0.0601,,,,0.0625,,0.0491,,,0.0542
